Measurements taken from publication PMC5540273 (PLoS ONE, 2017).
For some of these results: The strong results were mostly taken out for another list; the other results follow. Only a part is listed here, and it is no random draw.

Key:
Settings in all cases: concentration: 1 μM,replicates: in singlicate; n = 1
[1] = tested on: LATS1
[2] = tested on: LATS2
[3] = tested on: LCK
[4] = tested on: LIMK1
[5] = tested on: LIMK2
[6] = tested on: T1, LKB1
T1 construct: gene STK11

[7] = tested on: T2, LOK
T2 construct: gene STK10

[8] = tested on: LRRK2
[9] = tested on: LTK
[10] = tested on: LYN
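Further: KINOMEscan kinase panel screen.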

Compound: Cc1cc(C)cc(Oc2nccc(-c3c(-c4ccc(F)cc4)ncn3C3CCNCC3)n2)c1.O=C(O)C(F)(F)F.O=C(O)C(F)(F)F.O=C(O)C(F)(F)F [SB-284851]
- %Inh [1]: 0%
- %Inh [2]: 0%
- %Inh [3]: 20%
- %Inh [4]: 5%
- %Inh [5]: 0%
- %Inh [6]: 0%
- %Inh [7]: 0%
- %Inh [8]: 0%
- %Inh [9]: 15%
- %Inh [10]: 0%

Compound: CS(=O)(=O)c1ccccc1-c1nc(-c2ccc(F)cc2)c(-c2ccncc2)[nH]1 [SB-213663]
- %Inh [1]: 5%
- %Inh [2]: 27%
- %Inh [3]: 0%
- %Inh [4]: 0%
- %Inh [5]: 0%
- %Inh [6]: 27%
- %Inh [7]: 10%
- %Inh [8]: 0%
- %Inh [9]: 35%
- %Inh [10]: 12%

Compound: O=C1NC(=O)C(c2ccccc2Cl)=C1Nc1cccc(C(=O)O)c1 [SB-390526]
- %Inh [1]: 29%
- %Inh [2]: 13%
- %Inh [3]: 6%
- %Inh [4]: 0%
- %Inh [5]: 0%
- %Inh [6]: 29%
- %Inh [7]: 0%
- %Inh [8]: 0%
- %Inh [9]: 0%
- %Inh [10]: 2%

Compound: O=C1NC(=O)C(c2ccccc2Cl)=C1Nc1ccccc1 [SB-376715]
- %Inh [1]: 20%
- %Inh [2]: 3%
- %Inh [3]: 9%
- %Inh [4]: 15%
- %Inh [5]: 0%
- %Inh [6]: 98%
- %Inh [7]: 0%
- %Inh [8]: 0%
- %Inh [9]: 3%
- %Inh [10]: 0%

Compound: O=C1NC(=O)C(c2ccc(Cl)cc2)=C1Nc1cccc(C(=O)O)c1 [SB-360737]
- %Inh [1]: 0%
- %Inh [2]: 0%
- %Inh [3]: 17%
- %Inh [4]: 11%
- %Inh [5]: 11%
- %Inh [6]: 0%
- %Inh [7]: 9%
- %Inh [8]: 0%
- %Inh [9]: 3%
- %Inh [10]: 0%

Compound: O=C1NC(=O)c2c1c(-c1ccccc1)cc1[nH]c3ccc(O)cc3c21
- %Inh [1]: 0%
- %Inh [2]: 28%
- %Inh [3]: 0%
- %Inh [4]: 0%
- %Inh [5]: 0%
- %Inh [6]: 13%
- %Inh [7]: 55%
- %Inh [8]: 13%
- %Inh [9]: 0%
- %Inh [10]: 0%

Compound: CSc1ccc(NC2=C(c3cccc(Cl)c3)C(=O)NC2=O)cc1 [SB-341528]
- %Inh [1]: 0%
- %Inh [2]: 11%
- %Inh [3]: 0%
- %Inh [4]: 0%
- %Inh [5]: 0%
- %Inh [6]: 0%
- %Inh [7]: 0%
- %Inh [8]: 0%
- %Inh [9]: 0%
- %Inh [10]: 0%

Compound: COc1ccc(C2=C(Nc3cccc(Cl)c3)C(=O)NC2=O)cc1 [SB-326892]
- %Inh [1]: 20%
- %Inh [2]: 22%
- %Inh [3]: 0%
- %Inh [4]: 3%
- %Inh [5]: 7%
- %Inh [6]: 0%
- %Inh [7]: 27%
- %Inh [8]: 0%
- %Inh [9]: 40%
- %Inh [10]: 0%

Compound: O=C1NC(=O)C(c2ccc(Cl)cc2)=C1Nc1ccccc1 [SB-317661]
- %Inh [1]: 0%
- %Inh [2]: 0%
- %Inh [3]: 0%
- %Inh [4]: 0%
- %Inh [5]: 0%
- %Inh [6]: 0%
- %Inh [7]: 0%
- %Inh [8]: 0%
- %Inh [9]: 0%
- %Inh [10]: 0%

Compound: O=C1NC(=O)C(c2ccc(Cl)cc2)=C1Nc1ccc(O)c(Cl)c1 [SB-405367]
- %Inh [1]: 0%
- %Inh [2]: 18%
- %Inh [3]: 3%
- %Inh [4]: 0%
- %Inh [5]: 0%
- %Inh [6]: 40%
- %Inh [7]: 4%
- %Inh [8]: 0%
- %Inh [9]: 0%
- %Inh [10]: 0%

Compound: O=C1NC(=O)C(c2ccccc2)=C1Nc1ccc(Cl)c(C(=O)O)c1 [SB-390532]
- %Inh [1]: 0%
- %Inh [2]: 2%
- %Inh [3]: 0%
- %Inh [4]: 8%
- %Inh [5]: 0%
- %Inh [6]: 11%
- %Inh [7]: 2%
- %Inh [8]: 8%
- %Inh [9]: 6%
- %Inh [10]: 3%

Compound: O=C1NC(=O)C(c2ccccc2)=C1Nc1cc(Cl)c(O)c(Cl)c1 [SB-390530]
- %Inh [1]: 16%
- %Inh [2]: 0%
- %Inh [3]: 0%
- %Inh [4]: 0%
- %Inh [5]: 0%
- %Inh [6]: 0%
- %Inh [7]: 23%
- %Inh [8]: 39%
- %Inh [9]: 14%
- %Inh [10]: 0%

Compound: O=C1NC(=O)C(c2ccc(Cl)cc2)=C1Nc1cccc(O)c1 [SB-333613]
- %Inh [1]: 0%
- %Inh [2]: 34%
- %Inh [3]: 0%
- %Inh [4]: 0%
- %Inh [5]: 0%
- %Inh [6]: 61%
- %Inh [7]: 6%
- %Inh [8]: 4%
- %Inh [9]: 12%
- %Inh [10]: 3%

Compound: COc1cccc(C2=C(Nc3ccc(SC)cc3)C(=O)NC2=O)c1 [SB-331032]
- %Inh [1]: 2%
- %Inh [2]: 0%
- %Inh [3]: 20%
- %Inh [4]: 6%
- %Inh [5]: 10%
- %Inh [6]: 22%
- %Inh [7]: 31%
- %Inh [8]: 0%
- %Inh [9]: 0%
- %Inh [10]: 15%

Compound: O=C(O)c1ccc(-c2nc(-c3ccc(F)cc3)c(-c3ccncc3)[nH]2)cc1 [SB-202620]
- %Inh [1]: 13%
- %Inh [2]: 0%
- %Inh [3]: 7%
- %Inh [4]: 10%
- %Inh [5]: 1%
- %Inh [6]: 32%
- %Inh [7]: 33%
- %Inh [8]: 0%
- %Inh [9]: 23%
- %Inh [10]: 14%

Compound: Cc1ccc(C)c(Oc2nccc(-c3c(-c4ccc(F)cc4)ncn3C3CCNCC3)n2)c1.O=C(O)C(F)(F)F.O=C(O)C(F)(F)F.O=C(O)C(F)(F)F [SB-284852]
- %Inh [1]: 0%
- %Inh [2]: 0%
- %Inh [3]: 19%
- %Inh [4]: 1%
- %Inh [5]: 0%
- %Inh [6]: 0%
- %Inh [7]: 21%
- %Inh [8]: 0%
- %Inh [9]: 17%
- %Inh [10]: 7%
